Assay results published in the RNAGym collection of RNA variant scans (doi:10.7554/elife.90254).
Read counts are not given, so values of variants with three or more changes are uncertain.

B1: LINE1-mini (parent)
chain: GGCAGAGCUCAACACAGCGUGGCAAAGUGGCUGUGGCUAGACUGCC

Variants of: B1
Assay: self-cleavage, relative activity (ratio to wild type); higher = more cleavage; in vitro, sequencing; the parent is a self-cleaving ribozyme

Variant | self-cleavage
G1C C3A G17A | 0.09
G1C C15A C31U | 0.02
G1C C15A C31G | 0
G1C A11C A16U G27C U28C | 0.01
G1C A11G U38C C42U C45A | 0.02
G1C C3G G19C | 0.07
G1A U9A C15G G19U C31A U34G | 0.06
G1C A26G G40C | 0
G1C C15G G22U U43A | 0
G1A U9C U20G A41U | 0.11
G1C A14C C18G G19C U32G G36C | 0.01
G1C A4C U20G G21A G40A | 0.03
G1A U9C C13U G40A A41U | 0.07
G1C A24G U32A C42G U43A | 0.06
G1C C8A U9A C23A | 0.08
G1C C10U U28G | 0.01
G1C C10U U28A | 0.02
G1C A14U G40A C46G | 0.03
G1C A4U G19C | 0.04
G1C G2A C13U C31G | 0.03
G1C A24G G30C G35A U43C C45U | 0.1
G1A U9A U28G G29U G30A | 1.89
G1C C10G C42G | 0.01
G1A U34A C37A G40U | 0.03

Variant | self-cleavage
G1C A12C C23A G27A | 0.01
G1C A24C A41G | 0.03
G1C C3A A26G | 0.27
G1C C10U A14G | 0.04
G1C A12C G29A U34A U38A C46G | 0
G1C A14C A25C | 0.04
G1C A6G C8U G27A G40U | 0.01
G1A G44A C45U C46A | 0.13
G1C C15A C31A G44A C46A | 0
G1C A24C A25G U28A U43G | 0.02
G1C A6U C15U A16G | 0.04
G1C C23A A41C | 0
G1C A6C C10G U28G G35U | 0.01
G1C A14U G35C C46U | 0.02
G1C C3A C10G U28A | 0.01
G1C A11U A24G A41G | 0.01
G1C C3A C10A A11U A25U G35A G36U | 0.01
G1A U9C G21U | 0.12
G1C A12G G17U C18G U28C | 0
G1C A26U C31U | 0.02
G1C C3U G27A | 0.1
G1C C3U G27C | 0.02
G1C A6U A11U A12G G33C | 0
G1C C3G A4C A16U U38G G40A U43G | 0.08

Variant | self-cleavage
G1A G40U C45A | 0.03
G1C C10A C18A C45U | 0.02
G1C A12C G21U A26G G33C U34A C37G U43G | 0
G1C A11G G22C G40C | 0
G1C A6C G21A | 0.17
G1C C10U A41G | 0.01
G1C A6U U9G G30U | 0.06
G1C A16G C23G A39G C42A | 0.01
G1C C15G C31A | 0.19
G1A U38A C42U | 0.1
G1C C10G A14G G27A U43G | 0
G1C A24U C45A | 0.03
G1A U20G C37U | 0.02
G1A U34C G44C C45G | 0.03
G1C A16C U20A | 0.01
G1C A4C C18A G35A | 0.02
G1C C31A A41U | 0.02
G1C C10A C31G | 0
G1C A12C G33C C45U | 0
G1A G33U G40C | 0.06
G1A U9G C18A G36U | 0.57
G1C C8U C15A U20G | 0.04
G1C A12G C13G G29U | 0.01
G1C C8A A12C A41U G44U | 0.02

Variant | self-cleavage
G1C C3U G44C | 0.63
G1C A26C C46U | 0.13
G1C A4G C15G G17C C18G A26C G30U U43A | 0
G1C C13A A16G G36C | 0.01
G1C A6U C10A A11G | 0.02
G1C G2A A14C G35U | 0.03
G1C C3G A24C | 0.02
G1A U38C G44U | 0.1
G1C C18G C46U | 0.03
G1C C3A G7A C8U G27A | 0.22
G1C C10U A26C U32C U34G C46U | 0.01
G1A U9C C42A | 0.09
G1C A11U G30U | 0.01
G1C C23A U43G G44C | 0.01
G1C C8G G17C A39G G40A | 0
G1C C8U C13A G19C U28A | 0.03
G1C C3A G5A A41C | 0.1
G1C C15G C37G | 0.03
G1C A24U C37A | 0.04
G1C C13A G21A U43G C46A | 0.03
G1C G2A C23U A25U C46A | 0.4
G1C C3A A25G A26C G40A | 0.06
G1A U32G C46A | 0.14
G1C A25G A26U | 0.05

Variant | self-cleavage
G1C G2A A12G C23U | 0.03
G1C A4U G29A A39U | 0.01
G1C A4G U9G A39C A41G | 0
G1C C3U A4U U32C G35C | 0.04
G1A G30U C37U A41G | 0.09
G1C C13A C31U G40C | 0.02
G1A G30U C42U | 0.05
G1A U20C C23A | 0.12
G1C C10A A25G G44A | 0.02
G1C C15U G40C | 0.02
G1C A25C U28G | 0.09
G1C A24U C37G A39G G40A | 0
G1C A12U G19C | 0.04
G1C C18A U34G | 0.02
G1C C23G A41U | 0.41
G1C C15A U20C A26G G27U G44U | 0.01
G1C C8A C10A C13A G27C G29A U43A | 0
G1C C10A A16U G29C | 0.01
G1C C18A A39G A41C | 0
G1A U9A C45G | 0.53
G1C C10A A26C U43C | 0
G1A G36U U38A | 0.07
G1C C8G C15G G21A A41U | 0.01
G1C C10A A25U | 0.02

Variant | self-cleavage
G1C A4C C13U C23U A39U | 0.02
G1C A14U C45A | 0.01
G1C A6G C46U | 0.08
G1C C8A G19C G27U | 0.03
G1C G2A C10U C13A | 0.06
G1C A6G C8G C15G A16U A25C | 0
G1C A26G U28G G33A | 0.03
G1C A24G G33U | 0
G1C C8A G40A U43C | 0.09
G1C A12U C23A | 0.06
G1A U34A G36C | 0.05
G1A U28G A39U | 1.47
G1C C8G A16G A26C C37U | 0
G1C A25C G30C | 0.41
G1C A12U G17A G22C | 0.01
G1C G2A A11G A26G U43A | 0
G1C C3A G5A G40U | 0.14
G1C C3U A11G A14U C31A | 0.01
G1C A6U G29A C37U | 0
G1C A14C U32A | 0.01
G1A U9A U28G | 0.48
G1C C8U A14G U28G G44U | 0.02
G1A U20G A41G | 0.1
G1C G2A G5U U9C | 0.01

Variant | self-cleavage
G1C C13A G29U | 0.01
G1A U9G A16C A25G | 0.16
G1C C13U C37U | 0.07
G1C A6U C13A | 0
G1C C3A G5A A24C U43G | 0.03
G1C C42G G44C | 0
G1C C8U U43A | 0
G1C A6U A12G | 0
G1C C15A U28C U38A A39U | 0.02
G1C A6G C31U G33U C37U | 0.01
G1C A26U U28G | 0.32
G1C A6G A25U G44U | 0.02
G1C A12G G30C | 0.01
G1A U32G C42U | 0.08
G1C C8A C10U G36U | 0.01
G1C C8G C37A G44A | 0.01
G1C C3U G19C C23U C42A | 0.03
G1C A6C C46A | 0.16
G1C A4G A11G | 0.01
G1C C10A A14G G19C G22U U32C G40U | 0
G1C A4G G36A | 0.1
G1C G2A C3U A11G G29U G30A C42G | 0.02
G1C A4U G29U G35U | 0.04
